# In PubChem BioAssay AID686979 (National Center for Advancing Translational Sciences (NCATS), 2013):
# Screen size: about 420,000 compounds; about 50,000 (12%) were called active. This list was built around the results that the source calls inconclusive (neither active nor inactive); the mix of calls is not that of the screen. Calls follow the shape of the dose curve; as a rule, active = well fitted inhibition curve with a large enough effect; inconclusive = small, poorly fitted or top-dose-only effect; inactive = flat fitted curve, though single readings scatter. Potencies of inconclusive entries are left out as doubtful fits.
# Assay: qHTS for Inhibitors of human tyrosyl-DNA phosphodiesterase 1 (TDP1): qHTS in cells in presence of CPT; also: nearly all actives have a fitted effect of over 55% in size
# Conditions: chicken DT40 Tdp1-/-;hTDP1 cells + 20 nM CPT, ATP luminescence, 48 h; activity change, negative = growth inhibition: at 46.2 µM (top of the series) unless noted
# Summary of the method: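 Cell growth measured by CellTiter-Glo luminescence after a minimum 48 h, 37 C compound exposure with 20 nM CPT in Tdp1-knockout DT40 cells stably expressing hTDP1, seeded 400/well; qHTS titration format.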
# % is scaled to controls: 0 for no effect and ±100 for the full control effect; potency is read from the fitted curve at half-maximal effect; tags tell the direction and shape of the fitted curve.
SMILES,Potency,"activity change, negative = growth inhibition"
COc1cc(N2C(=O)CSC2=S)cc(OC)c1OC,inactive,
COc1ccc2c(c1)cc(C(=O)N[C@H](C(=O)N1CCC(C(=O)O)CC1)C(C)C)n2C,inactive,
Nn1cnnc1N/N=C/c1ccc(Cl)c([N+](=O)[O-])c1,inactive,
O=C(CCNc1ccccc1)c1ccc2c(c1)OCO2,"inconclusive [inhibitor, single point]",
COc1ccc(NC(=O)Cc2csc(NC(=O)Nc3ccccc3OC)n2)c(OC)c1,"inconclusive [inhibitor, single point]",
CCOC(=O)c1c(NC(=O)CC2Nc3ccccc3NC2=O)sc(C)c1C (stereo unspecified),active: 8.2 µM,
Cc1cccc(C)c1NC(=O)C(C1CC1)n1c(=O)c(-c2ccco2)nc2ccccc21 (stereo unspecified),"inconclusive [inhibitor, single point]",
O=C(Cc1ccc(F)cc1)NC1CC(=O)N(c2ccccc2)C1 (stereo unspecified),inactive,
COc1ccccc1C(=O)N1CCN(C(=O)c2oc3ccc(C)cc3c2C)CC1,"inconclusive [inhibitor, partial curve, poor fit]",
CCOc1cc(N2CCOCC2)c(OCC)cc1NC(=O)CN1C(=O)NC(C)(C2CC2)C1=O (stereo unspecified),inactive,
O=C(CN(C(=O)c1csnn1)c1ccc(Br)cc1)NC1CCCCC1,inactive,
CCOC(=O)c1sc(NC(=O)CCN2CCN(C)CC2)c(C(=O)OCC)c1C,"inconclusive [inhibitor, single point]",
CCN1C(=O)[C@H]2[C@@H](c3ccc(C)cc3)N3C(=O)N(c4cccc(C)c4)C(=O)[C@@]3(Cc3ccccc3)[C@H]2C1=O,inactive,
COc1cc2[nH]c3c(Cl)ncnc3c2cc1OC,"inconclusive [inhibitor, partial curve]",
CCOC(=O)c1ccc(-n2c(CN3CCC(C(N)=O)CC3)nc3ccc([N+](=O)[O-])cc3c2=O)cc1,"inconclusive [inhibitor, single point]",
COc1ccc(Nc2cc(C)nc3nc(C)nn23)cc1Cl,inactive,
COCCOc1nc2c(c(=O)n(C)c(=O)n2C)n1CCc1ccccc1,inactive,
CC(=O)Nc1cc2c(cc1[N+](=O)[O-])-c1ccccc1C2=NO,"inconclusive [inhibitor, single point]",
O=C(Nc1ccc2c(c1)OCCO2)C(CCc1ccccc1)N1CCC(Cc2ccccc2)CC1 (stereo unspecified),"inconclusive [inhibitor, single point]",
O=C(CCN1C(=O)NC2(CCCC2)C1=O)Nc1cccc(S(=O)(=O)N2CCOCC2)c1,inactive,
Cc1ccc(C2=NN3C(C2)c2ccccc2OC32C(=O)Nc3ccccc32)cc1 (stereo unspecified),"inconclusive [inhibitor, partial curve]",
CCC(=O)N1c2ccc(S(=O)(=O)N3CCN(c4ccccc4)CC3)cc2CC1C (stereo unspecified),"inconclusive [inhibitor, partial curve, poor fit]",
CC(=O)c1ccc(NC(=O)c2cn3c4c(ccc(Cl)c4c2=O)OC(C)C3)cc1 (stereo unspecified),inactive,
CC(C)(C)S(=O)(=O)N1C[C@H]2CC/C=C\C/C(c3ccccc3)=C\2[C@@H]1CCO,"inconclusive [inhibitor, single point]",

SMILES,Potency,"activity change, negative = growth inhibition"
O=C(NCCN1CCOCC1)c1cnn(-c2ncc3c(n2)-c2ccccc2CC3)c1C1CC1,,inactive: 10.5% [at 9.04 µM]
COc1ccc(-c2noc(CN3CCN(c4ccccc4)CC3)n2)cc1,"inconclusive [inhibitor, single point]",
Cc1ccc(S(=O)(=O)C(CNC(=O)C(=O)NCc2ccc(Cl)cc2)c2cccs2)cc1 (stereo unspecified),"inconclusive [inhibitor, single point]",
Cc1ccc(-c2cc3nc(NCCOc4ccccc4Cl)n(C)c(=O)c3s2)cc1,"inconclusive [inhibitor, single point]",
O=c1c(Br)c(N2CCCC2)cnn1-c1ccccc1,inactive,
Cc1ccc(/C=N/NC(=O)c2nnn(-c3nonc3N)c2-c2cccs2)cc1,"inconclusive [inhibitor, single point]",
Cc1c(NC(=O)c2ccc(OC(C)C)cc2)cccc1-c1nc2ncccc2o1,"inconclusive [inhibitor, single point]",
COc1cc(/C=N/NC(=O)c2ccc(CSc3nc4ccccc4[nH]3)cc2)ccc1O,"inconclusive [inhibitor, single point]",
O=S(=O)(c1ccc2c(c1)CCN2)N1CCCC1,inactive,
COc1ccc(-c2ccc(CN3C(C(C)C)C(=O)N(Cc4cn(CCC5OCCCO5)nn4)CCS3(=O)=O)cc2)cc1OC (stereo unspecified),"inconclusive [inhibitor, single point]",
CCCCCCn1cc(CN2CC(N3CCSCC3)CS2(=O)=O)nn1 (stereo unspecified),inactive,
CCCCc1ccc(/C=C2/C(=O)ON=C2c2ccccc2)s1,inactive,
CC(Oc1ccc(F)cc1)C(=O)NCC1(N(C)C)CCCCC1 (stereo unspecified),inactive,
Cc1cccc(OCC(=O)Nc2ccc(N3CCN(C(=O)c4ccccc4)CC3)cc2)c1,"inconclusive [inhibitor, single point]",
CN(C)CCNc1ncnc2c1ncn2[C@H]1CN(Cc2ccc(Cl)cc2)C[C@@H](CO)O1,"inconclusive [inhibitor, partial curve]",
CCC(=O)c1c[nH]c(C(=O)NCc2ccccc2OC)c1,"inconclusive [inhibitor, partial curve]",
O=c1c2c(nc3nc(SCc4ccccc4)[nH]n13)CCC2,inactive,
O=C1CN(C(=O)c2ccc(S(=O)(=O)N3CCCCC3)cc2)C(c2ccc(F)cc2)c2cc(F)ccc2N1 (stereo unspecified),"inconclusive [inhibitor, single point]",
O=C(Nc1ccc(Br)cc1C(=O)O)c1ccc2c(c1)C(=O)N(Cc1ccccc1)C2=O,inactive,
O=C(C[n+]1cccc2cc(Cl)ccc21)c1cccc([N+](=O)[O-])c1,inactive,
FC(F)(F)c1cccc(NC(=S)Nc2ccc(Cl)c(Cl)c2)c1,"inconclusive [inhibitor, single point]",
COc1cccc(C(=O)NCCSc2c(-c3ccc(F)cc3)[nH]c3ccccc23)c1OC,active: 16.4 µM,
COc1ccc(-n2c(=O)cnc3cnc(N4CCOCC4)nc32)cc1,"inconclusive [inhibitor, partial curve]",
CCN(CC)c1ccc(C2NCC(c3ccc([N+](=O)[O-])cc3)O2)cc1 (stereo unspecified),inactive,

SMILES,Potency,"activity change, negative = growth inhibition"
COc1ccc(/C=C/C(=O)Nc2c(C(=O)O)[nH]c3ccccc23)cc1OC,active: 20.6 µM,
COc1cccc(/C=C2/SC(=S)N(CC(=O)NNC(=O)c3ccccc3OC)C2=O)c1,inactive,
S=C(NCc1ccco1)Nc1ccc(Oc2ccccc2)cc1,"inconclusive [inhibitor, single point]",
CCCS(=O)(=O)Nc1cc(-c2cn3cccc(C)c3n2)ccc1C,"inconclusive [inhibitor, single point]",
COc1ccccc1C(=O)N(C)c1nnc(-c2ccccc2)s1,"inconclusive [inhibitor, partial curve]",
CC(C)Oc1ccc(CNC(=O)CCCn2c(=O)c3cccn3c3ccccc32)cc1,active: 16.4 µM,
CC(=O)[C@H]1CC[C@@H](c2ccccc2)N(S(=O)(=O)c2ccc(C)cc2)C1,"inconclusive [inhibitor, single point]",
CCN(CC)S(=O)(=O)c1ccc(S(=O)(=O)N2CCN(C(=O)c3ccco3)CC2)cc1,inactive,
CCN(CC(=O)Nc1ccc2c(c1)OCCO2)S(=O)(=O)c1cccs1,inactive,
COc1ccc2c(c1)C1=NN(/C(C)=C\C(C)=O)C(c3ccccc3)C1CC2 (stereo unspecified),active: 18.4 µM,
CC1CCN(c2nc3ccc(C(=O)N4CCN(Cc5ccccc5)CC4)cc3s2)CC1,"inconclusive [inhibitor, single point]",
Cc1onc(-c2ccccc2)c1C(=O)OCC(=O)Nc1cccc(Cl)c1,"inconclusive [inhibitor, partial curve, poor fit]",
COCCn1c(SCc2nc3ccccc3s2)nc2ccccc21,"inconclusive [inhibitor, single point]",
CCc1ccc(N2CC(C(=O)NCc3ccco3)CC2=O)cc1 (stereo unspecified),inactive,
COc1ccc(-c2cn3nc(N4CCC(C(=O)NCc5ccccc5F)CC4)sc3n2)cc1,"inconclusive [inhibitor, single point]",
Cc1ccc(NCc2cccn2-c2nnc(N3CCC(C(=O)NC(C)C)CC3)s2)cc1,"inconclusive [inhibitor, single point]",
COc1ccc(N2CCN(C(=O)CCCCCn3c(=O)[nH]c4ccsc4c3=O)CC2)cc1,"inconclusive [inhibitor, partial curve, poor fit]",
Cn1c(NNC(=O)CCC2CCCCC2)cc(=O)n(C)c1=O,inactive,
COc1ccc(-c2cc(C)no2)cc1S(=O)(=O)N1CCCN(Cc2ccccc2Cl)C1,"inconclusive [inhibitor, single point]",
COc1ccc(/C=N/NC(=O)c2cccc([N+](=O)[O-])c2)c2ccccc12,"inconclusive [inhibitor, single point]",
O=S(=O)(NCCOC12CC3CC(CC(C3)C1)C2)c1cccc2nsnc12,active: 18.4 µM,
O=C(CSc1ccc2c(c1)OCCO2)Nc1cccc(S(=O)(=O)N2CCCCC2)c1,inactive,
Brc1ccc(-c2nnc3c4ccccc4nc(N4CCOCC4)n23)cc1,"inconclusive [inhibitor, partial curve]",
